# The list shows a part of the results.
# B1: Codakine (Codakia orbicularis), Q3KVL7_9BIVA (protein)
# chain: MKILVAVFLVLVVVGTAAAGCPDGWTQFLDLCYIYQSAKASWASAQSSCQALGGILAEPDTACENEVLIHMCRENGDAGSFGPWLGGQKVGGAWQWSSSGAAFDYLRWGPNEPNNSGGNEDCLHYNWLSWNDLRCHYQASYLCQRAAE
# Assays:
# Test in all cases: glycan array binding signal (z-score within array); higher = stronger binding
# Conditions in all cases: glycan notation: IUPAC condensed, linker removed
# [1] = target: Fuc(a1-3)[Gal(b1-4)]GlcNAc(b1-2)Man(a1-6)[Gal(b1-4)GlcNAc(b1-2)Man(a1-3)]Man(b1-4)GlcNAc(b1-4)GlcNAc
# Procedure, shortened: (§1)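 Glycan array data came from 3228 arrays in the Consortium for Functional Glycomics database, and only arrays with an available protein sequence were kept. Glycan names were put into IUPAC-condensed notation, and columns mapping to the same glycan were averaged. The binding signal is a within-array Z-score, averaged across arrays of one protein sequence run at different concentrations or buffers and across linkers. A negative Z-score can be read as non-binding.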
# [2] = target: Fuc(a1-3)[Gal(b1-4)]GlcNAc(b1-3)Gal(b1-3)[Fuc(a1-4)]GlcNAc
# Procedure, shortened: as §1
# [3] = target: Fuc(a1-3)[Gal(b1-4)]GlcNAc(b1-4)Gal(b1-4)[Fuc(a1-3)]GlcNAc
# Procedure, shortened: as §1
# [4] = target: Fuc(a1-3)[Gal(b1-4)]GlcNAc(b1-4)Gal(b1-4)[Fuc(a1-3)]GlcNAc(b1-4)Gal(b1-4)[Fuc(a1-3)]GlcNAc
# Procedure, shortened: as §1
# [5] = target: Fuc(a1-3)[Gal(b1-4)]GlcNAc6S
# Procedure, shortened: as §1
# [6] = target: Fuc(a1-3)[Gal3S(b1-4)]Glc6S
# Procedure, shortened: as §1
# [7] = target: Fuc(a1-3)[Gal3S(b1-4)]GlcNAc
# Procedure, shortened: as §1
# [8] = target: Fuc(a1-3)[Gal3S(b1-4)]GlcNAc6S
# Procedure, shortened: as §1
# [9] = target: Fuc(a1-3)[GalNAc(b1-4)]GlcNAc
# Procedure, shortened: as §1
# [10] = target: Fuc(a1-4)GlcNAc
# Procedure, shortened: as §1
# [11] = target: Fuc(b1-3)GlcNAc
# Procedure, shortened: as §1
# [12] = target: Gal(a1-2)Gal
# Procedure, shortened: as §1
# [13] = target: Gal(a1-3)Gal
# Procedure, shortened: as §1
# [14] = target: Gal(a1-3)Gal(b1-3)GlcNAc
# Procedure, shortened: as §1
# [15] = target: Gal(a1-3)Gal(b1-4)Glc
# Procedure, shortened: as §1
# [16] = target: Gal(a1-3)Gal(b1-4)GlcNAc
# Procedure, shortened: as §1
# [17] = target: Gal(a1-3)Gal(b1-4)[Fuc(a1-3)]GlcNAc
# Procedure, shortened: as §1
# [18] = target: Gal(a1-3)GalNAc
# Procedure, shortened: as §1
# [19] = target: Gal(a1-3)[Gal(a1-4)]Gal(b1-4)GlcNAc
# Procedure, shortened: as §1
# [20] = target: Gal(a1-4)Gal(b1-4)Glc
# Procedure, shortened: as §1
# [21] = target: Gal(a1-4)Gal(b1-4)GlcNAc
# Procedure, shortened: as §1
# [22] = target: Gal(a1-4)GlcNAc
# Procedure, shortened: as §1
# [23] = target: Gal(a1-6)Glc
# Procedure, shortened: as §1
# [24] = target: Gal(b1-2)Gal
# Procedure, shortened: as §1
# [25] = target: Gal(b1-3)Gal
# Procedure, shortened: as §1
# [26] = target: Gal(b1-3)Gal(b1-4)GlcNAc
# Procedure, shortened: as §1
# [27] = target: Gal(b1-3)GalNAc
# Procedure, shortened: as §1
# [28] = target: Gal(b1-3)GalNAc(b1-3)Gal(a1-4)Gal(b1-4)Glc
# Procedure, shortened: as §1
# [29] = target: Gal(b1-3)GalNAc(b1-4)Gal(b1-4)Glc
# Procedure, shortened: as §1
# [30] = target: Gal(b1-3)GalNAc(b1-4)[Neu5Ac(a2-3)]Gal(b1-4)Glc
# Procedure, shortened: as §1
# [31] = target: Gal(b1-3)GlcNAc
# Procedure, shortened: as §1
# [32] = target: Gal(b1-3)GlcNAc(b1-2)Man(a1-3)[Gal(b1-3)GlcNAc(b1-2)Man(a1-6)]Man(b1-4)GlcNAc(b1-4)GlcNAc
# Procedure, shortened: as §1
# [33] = target: Gal(b1-3)GlcNAc(b1-3)Gal(b1-3)GlcNAc
# Procedure, shortened: as §1
# [34] = target: Gal(b1-3)GlcNAc(b1-3)Gal(b1-4)Glc
# Procedure, shortened: as §1
# [35] = target: Gal(b1-3)GlcNAc(b1-3)Gal(b1-4)GlcNAc
# Procedure, shortened: as §1
# [36] = target: Gal(b1-3)[Fuc(a1-4)]GlcNAc
# Procedure, shortened: as §1
# [37] = target: Gal(b1-3)[Fuc(a1-4)]GlcNAc(b1-3)Gal(b1-3)[Fuc(a1-4)]GlcNAc
# Procedure, shortened: as §1
# [38] = target: Gal(b1-3)[Fuc(a1-4)]GlcNAc(b1-3)Gal(b1-4)GlcNAc
# Procedure, shortened: as §1
binder,measurement,setting,value
B1,glycan array binding signal (z-score),[1],6.48
same,glycan array binding signal (z-score),[2],-0.279
same,glycan array binding signal (z-score),[3],-0.321
same,glycan array binding signal (z-score),[4],-0.314
same,glycan array binding signal (z-score),[5],-0.11
same,glycan array binding signal (z-score),[6],-0.121
same,glycan array binding signal (z-score),[7],-0.188
same,glycan array binding signal (z-score),[8],0.159
same,glycan array binding signal (z-score),[9],-0.319
same,glycan array binding signal (z-score),[10],-0.265
same,glycan array binding signal (z-score),[11],-0.361
same,glycan array binding signal (z-score),[12],-0.314
same,glycan array binding signal (z-score),[13],-0.294
same,glycan array binding signal (z-score),[14],0.072
same,glycan array binding signal (z-score),[15],-0.242
same,glycan array binding signal (z-score),[16],-0.107
same,glycan array binding signal (z-score),[17],-0.123
same,glycan array binding signal (z-score),[18],-0.298
same,glycan array binding signal (z-score),[19],-0.265
same,glycan array binding signal (z-score),[20],-0.176
same,glycan array binding signal (z-score),[21],-0.168
same,glycan array binding signal (z-score),[22],-0.191
same,glycan array binding signal (z-score),[23],-0.362
same,glycan array binding signal (z-score),[24],-0.123
same,glycan array binding signal (z-score),[25],-0.325
same,glycan array binding signal (z-score),[26],-0.318
same,glycan array binding signal (z-score),[27],-0.324
same,glycan array binding signal (z-score),[28],-0.42
same,glycan array binding signal (z-score),[29],-0.243
same,glycan array binding signal (z-score),[30],-0.107
same,glycan array binding signal (z-score),[31],-0.236
same,glycan array binding signal (z-score),[32],0.389
same,glycan array binding signal (z-score),[33],-0.329
same,glycan array binding signal (z-score),[34],-0.326
same,glycan array binding signal (z-score),[35],-0.257
same,glycan array binding signal (z-score),[36],-0.203
same,glycan array binding signal (z-score),[37],-0.077
same,glycan array binding signal (z-score),[38],-0.047
